We go through six compounds from the supplement of paper PMC4604168 (melanoma cell lines).

Some of the results follow. Single values are uncertain, as repeats are few or missing.
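Note: cell number obtained by counting DAPI-stained nuclei in high-throughput microscope images with image analysis software, screen run in 1,536-well plates.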

The test has as its system WM451Lu. The experiment in a line: cell count relative to DMSO control; melanoma cells; higher = more viable cells. To be noted: library dose: low library concentration; 72 h.
The compound `O=C(Nc1cc(C(F)(F)F)cc(C(F)(F)F)c1)c1cc(Cl)ccc1O` + Clc1ccc(Nc2nnc(Cc3ccncc3)c3ccccc23)cc1 [vatalanib] (first compound 0.016 µM, partner dose 2 µM) displayed a cell count of 90.5%.

`O=C(Nc1cc(C(F)(F)F)cc(C(F)(F)F)c1)c1cc(Cl)ccc1O` + CN(NC(=O)CC(=O)NN(C)C(=S)c1ccccc1)C(=S)c1ccccc1 [STA4783] (first compound 0.016 µM, partner dose 0.006 µM) yielded a cell count of 92.6%.

Compound `O=C(Nc1cc(C(F)(F)F)cc(C(F)(F)F)c1)c1cc(Cl)ccc1O` + COCC[n+]1c2c(n(Cc3cnccn3)c1C)C(=O)c1ccccc1C2=O [YM155] (first compound 0.016 µM, partner dose 0.0004 µM) yielded a cell count of 80.4%.

In turn, `O=C(Nc1cc(C(F)(F)F)cc(C(F)(F)F)c1)c1cc(Cl)ccc1O` + O=C(O)c1ccc2c(c1)nc(Nc1cccc(Cl)c1)c1ccncc12 [CX4945] (first compound 0.016 µM, partner dose 0.4 µM) returned a cell count of 113%.

For the compound `O=C(Nc1cc(C(F)(F)F)cc(C(F)(F)F)c1)c1cc(Cl)ccc1O` + CCCCCCCCCCCCCCCCCCOP(=O)([O-])OC1CC[N+](C)(C)CC1 [Perifosine] (first compound 0.016 µM, partner dose 0.4 µM), the cell count worked out at 117%.

As to `O=C(O)c1ccc2c(c1)nc(Nc1cccc(Cl)c1)c1ccncc12` + NC(=O)Nc1cc(-c2cccc(F)c2)sc1C(=O)N[C@H]1CCCNC1 [AZD7762] (first compound 0.4 µM, partner dose 0.02 µM), the cell count was found to be 83.3%.
